The campaign covered roughly 52,000 compounds. About 1,700 (3.3%) were called active. No stated cut-off is given here; in the data, active means survival mostly below about 52% (no sharp cut-off); inactive means mostly above about 56%. The list shows a part of the results.

The test system of the assay is Wild type. In words: growth inhibition of S. aureus wild type versus tarO mutant, primary screen, teichoic acid synthesis inhibitors, RN4220, OD600 (AID 463173). To be noted: S. aureus RN4220 wild type/DeltatarO growth, OD600, 18 h, stronger effect = lower value, screened at 18.75 µg/mL (by protocol).
Consider `CCCn1c(=S)[nH]c2c1c(=O)[nH]c(=O)n2C`, for which the survival was inactive: 101%.

As for `Cc1cc(=O)[nH]c2nnc(SCc3ccc(Cl)cc3)n12`, the survival is inactive: 152%.

Regarding `COC(=O)C1=C(c2ccccc2)c2ccccc2S(=O)(=O)N1CC(=O)Nc1ccc(OC)cc1OC`, the survival is inactive: 154%.

For the compound `CCOc1ccc(NC(=O)CN2C(C(=O)OC)=C(c3ccccc3)c3cc(Cl)ccc3S2(=O)=O)cc1`, the survival is inactive: 61%.

On to `COc1ccc(C(C)C)cc1S(=O)(=O)N1CC(C)OC(C)C1` (stereo unspecified), for which the survival is inactive: 109%.

Turning to `COc1ccccc1NC(=O)C1CCN(S(=O)(=O)c2cn(C)cn2)CC1`, the survival is inactive: 69%.

In the case of `COc1ccccc1-c1cc(NC(=O)COc2ccc(C)c(C)c2)n(-c2ccccc2)n1`, the survival is inactive: 71%.

Take `O=C(NCc1ccccc1)C1CCN(S(=O)(=O)c2ccc3[nH]c(=O)ccc3c2)CC1`: the survival was inactive: 79%.

For `COc1ccc(NC(=O)c2c(NCc3cccc(F)c3)sc3c2CCCC3)c(OC)c1`, the survival is inactive: 66%.

As for `Cc1cc2nc(-c3cccc(NC(=O)COc4ccc(Cl)c(C)c4)c3)oc2cc1C`, the survival is inactive: 66%.

Regarding `Cc1cccc(N(C)S(=O)(=O)c2c(C(=O)N3CCCCCC3)c(C)n(C)c2C)c1`, the survival was inactive: 71%.

Take `Cc1ccc(Cl)cc1-n1ncc2c(N3CCC(C)CC3)ncnc21`: the survival was inactive: 121%.

Regarding `Cc1ccc(CNC(=O)CN2CCN(Cc3ccc(F)cc3)C2=O)cc1`, the survival is inactive: 89%.

In the case of `COc1ccc(CN(Cc2cccnc2)C(=S)NCc2ccco2)cc1OC`, the survival is inactive: 123%.

For `CCOc1ccc(CCNC(=O)c2cnc3sc(N4CCCCCC4)nn3c2=O)cc1`, the survival is inactive: 69%.

Turning to `Cc1cccc2c1-c1sc(C(=O)N3CCN(c4cccc(Cl)c4)CC3)cc1CO2`, the survival is inactive: 87%.

For the compound `COc1ccc(-c2cc(C(F)(F)F)nc(SCC(=O)NCc3ccc(Cl)cc3)n2)cc1`, the survival was inactive: 83%.

As for `CC(C)OCc1cc(CN2CCN(c3ccccc3)CC2)c(O)c2ncccc12`, the survival was inactive: 58%.

For `COc1ccc(OC)c(NC(=O)CN2CCCN(Cc3cc(C)ccc3C)S2(=O)=O)c1`, the survival was inactive: 72%.

With `O=C(CN1C(=O)C2(SCC(=O)N2c2ccc(F)c(F)c2)c2ccccc21)Nc1ccccc1F` (stereo unspecified), the survival is inactive: 70%.

For the compound `O=C(CSc1nccn1Cc1ccc(Cl)cc1)NCc1ccccc1`, the survival was inactive: 22%.

In the case of `COc1ccccc1CNC(=O)C(CC(C)C)N1Cc2ccccc2C1=O` (stereo unspecified), the survival is inactive: 76%.

Turning to `CCOC(=O)c1ccc(N2C(=O)c3n[nH]c(-c4ccco4)c3C2c2ccc(F)cc2)cc1` (stereo unspecified), the survival is active: 9%.

In the case of `CC1=C(C(=O)Nc2ccc(F)cc2F)C2(CCCCCC2)OC1=O`, the survival is inactive: 77%.

Take `Cc1cccc(CC(=O)NCCc2csc(-c3ccc(C(F)(F)F)cc3)n2)c1`: the survival is inactive: 75%.

`Cc1ccc(C)c(C(=O)COC(=O)CCCC(=O)Nc2cc(C(F)(F)F)ccc2Cl)c1`: the survival is inactive: 45%.

As to `CCOC(=O)c1cccc(NC(=O)N2CCC(CN3CCCCCC3)CC2)c1`, the survival was inactive: 76%.

Consider `Cn1c(=O)[nH]c(=O)c2c1nc(N1CCCC1)n2CCO`, for which the survival was inactive: 108%.

With `CNC(=O)C1CCC(Cn2c(=O)c3sccc3n(CC(=O)Nc3cc(F)ccc3F)c2=O)CC1` (stereo unspecified), the survival is inactive: 71%.

`CC(=O)Nc1cccc(NC(=O)CSc2cn(CC(=O)N3CCCCCC3)c3ccccc23)c1`: the survival was inactive: 100%.

Turning to `O=C(c1cn(CCOc2ccc(Cl)cc2)c2ccccc12)C1CCCCC1`, the survival was active: 9%.

For `O=[N+]([O-])c1cc(-c2nc(-c3ccncc3)no2)ccc1NCc1ccccc1`, the survival is inactive: 124%.

Consider `COc1cn(CC(=O)Nc2cc(C)ccc2C)c(CN2CCCCC2)cc1=O`, for which the survival is inactive: 138%.

Take `O=C(Nc1ccc2oc(-c3cccc(Cl)c3Cl)nc2c1)c1cccc(Br)c1`: the survival was inactive: 99%.

Turning to `CCN(CC)S(=O)(=O)c1ccc(C(=O)NCCSc2c(-c3ccc(OC)cc3)[nH]c3ccccc23)cc1`, the survival is inactive: 124%.

On to `COc1ccccc1NC(=O)C1=C(C)Nc2nc(SCc3ccccc3Cl)nn2C1c1ccncc1` (stereo unspecified), for which the survival is inactive: 79%.

Regarding `CC(=O)c1c(C)oc2ccc(N(C(=O)c3ccncc3)S(=O)(=O)c3ccc(C)cc3C)cc12`, the survival is inactive: 107%.

For the compound `COc1ccc(-c2ccc(=O)n(CC(=O)NCCc3ccccc3)n2)cc1`, the survival is inactive: 81%.

Take `CCCn1c2c(c(O)c(C(=O)Nc3ccccc3F)c1=O)CCCC2`: the survival was inactive: 103%.

For the compound `CCOC(=O)C1(c2ccccc2)NC(c2ccc(O)c(OC)c2)C2C(=O)N(C)C(=O)C21` (stereo unspecified), the survival is inactive: 108%.

For the compound `CCOc1ccc(C(=O)c2cn(CC(=O)Nc3cc(OC)ccc3OC)c3cc(OC)c(OC)cc3c2=O)cc1`, the survival is inactive: 68%.

In the case of `O=C(CN1C(=O)C2(SCC(=O)N2c2ccc(F)cc2)c2ccccc21)NCCc1ccccc1` (stereo unspecified), the survival was inactive: 94%.

`COc1ccc(NCc2nnc3n2CCCCC3)c(OC)c1`: the survival is inactive: 73%.

For `CC(C)(C)C/C(=N/O)c1ccccc1`, the survival was inactive: 101%.

Turning to `CCc1ccc(OCCSc2nc(-c3cccc(C)c3)nc3cc(=O)[nH]n23)cc1`, the survival is inactive: 59%.

In the case of `COc1ccc(NC(=O)CCSc2nc(-c3ccco3)cc(C(F)(F)F)n2)cc1OC`, the survival is inactive: 67%.

For `Cc1cc(C)cc(Nc2cc(C(=O)NCc3ccccc3)c3ccccc3n2)c1`, the survival was inactive: 139%.

As for `Cc1cc(C)c(NC(=O)C(C)n2nnc3sc(-c4ccccc4)cc3c2=O)c(C)c1` (stereo unspecified), the survival is inactive: 113%.

As for `CCOC(=O)C1CCN(C(c2ccc(F)cc2)c2sc3nc(-c4ccco4)nn3c2O)CC1` (stereo unspecified), the survival was inactive: 65%.

`CCOc1cc(CNCCSc2nnnn2-c2ccccc2)ccc1OC`: the survival was inactive: 93%.

For `O=C(Nc1ccccc1C(F)(F)F)c1cc2ccccn2n1`, the survival is inactive: 69%.

For the compound `Nc1c(C(=O)NCc2ccccc2)nnn1Cc1cccc(Br)c1`, the survival was inactive: 76%.

As for `Cc1cccc(NC(=O)Cn2c(=O)n(CCC(=O)N3CCc4ccccc4C3)c(=O)c3ccccc32)c1`, the survival was inactive: 93%.

For the compound `CCOC(=O)c1cccc(NC(=O)c2cc3cc4ccc(C)cc4nc3s2)c1`, the survival is inactive: 80%.

As for `CSc1ccc(CCNC(=O)c2cc3c(-c4ccccc4F)nn(C)c3s2)cc1`, the survival is inactive: 73%.

Consider `Cc1cc(C)cc(Nc2nc3c(S(=O)(=O)c4cccc(Cl)c4)nnn3c3ccsc23)c1`, for which the survival was inactive: 93%.

Source of the values: PubChem BioAssay AID463173 (ICCB-Longwood Screening Facility, Harvard Medical School, 2010).
